The whole screen tested about 46,000 compounds, of which about 60 (0.1%) were called active. About 3% were inconclusive and are not listed. Calls follow the shape of the dose curve; as a rule, active = well fitted inhibition curve with a large enough effect; inconclusive = small, poorly fitted or top-dose-only effect; inactive = no such curve, though single readings can be large or run the other way. This is one part of the list.
assay: Primary qHTS assay for Inhibitors of ovarian cancer metastasis using an organotypic tumor microenvironment (TME) model.; also: nearly all actives have a fitted effect of over 65% in size;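 as to activity change, negative = inhibition: plate controls were DMSO wells for no effect and tomatine positive control wells for full effect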; details: SKOV3ip1-GFP adhesion/invasion on 3D omental model, fluorescence; series mostly up to 45.8 µM; activity change, negative = inhibition: at the top concentration
In short: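 Primary human omental fibroblast/mesothelial 3D culture pre-formed 48 h. SKOV3ip1-GFP cells added with compounds (0.36-46 umol/L), incubated 2 h RT/16 h 37 C, fixed; GFP cells quantified at 488/509 nm.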

outcome, inactive:
COc1ccc(-c2onc(C)c2C)cc1S(=O)(=O)N1c2ccccc2CC1C (centres undefined), Cc1cccc(NC(=O)C2CCN(c3nnc(-n4c(C)ccc4C)s3)CC2)c1C, CCOc1ccc(C(CC(=O)O)N2Cc3ccccc3C2=O)cc1OC (centres undefined), COc1cccc(N2CCN(S(=O)(=O)c3ccc4[nH]c5c(c4c3)CCCC5)CC2)c1, Cc1cccc(N(C)C(=O)c2cc(S(=O)(=O)N3CCCC3)cn2C)c1, CCOC(=O)c1oc2c(c1C)-c1nn(Cc3ccc(Cl)cc3)cc1CC2, Cc1noc(C)c1S(=O)(=O)N1CCC(C(=O)N2CCN(c3ccccc3)CC2)CC1, O=C(CSc1nc2c([nH]c3ccccc32)c(=O)n1-c1ccc(F)cc1)N1CCCCC1, COc1ccccc1NC(=O)Cn1nnc(C(=O)NCc2ccc3c(c2)OCO3)c1N, CC(C)c1ccc(NC(=O)CN(C)S(=O)(=O)c2ccc3c(c2)c(=O)n(C)c(=O)n3C)cc1, Cc1c(C(=O)N(C)C)sc2c1c(=O)n(-c1ccc(Cl)c(Cl)c1)c(=O)n2CC(=O)Nc1cccc(C(F)(F)F)c1, COc1cccc(N2CCN(C(=O)c3c(C)oc4ncnc(N5CCOCC5)c34)CC2)c1, COc1cccc(Oc2nc3c(c(=O)n(Cc4ccccc4F)c(=O)n3C)n2C)c1, Cc1ccc(NS(=O)(=O)c2cc(Br)cc3c2N(C(=O)C2CC2)CC3)cc1C, CCc1ccccc1N(C)C(=O)Cn1cnc2sc(C)c(S(=O)(=O)N3CCN(c4ncccn4)CC3)c2c1=O, COc1ccc2c(CNCCc3cccs3)c(C(=O)O)n(Cc3ccccc3)c2c1, COc1ccccc1CCNC(=O)C(=O)NCC(c1ccc2c(c1)OCO2)N1CCOCC1 (centres undefined), COC(=O)c1ccccc1NC(=O)CSc1nc2ccsc2c(=O)n1CCC(C)C, CC(C)(C)OC(=O)N1CCC(c2c(C(=O)N3CCCCC3)cnn2-c2ccc(Cl)cc2)CC1, Cc1cccc(Cn2c(CNS(=O)(=O)c3ccc4c(c3)CCCC4)nc3cccnc32)c1, CCc1cccc(NC(=O)C2CCN(C(=O)c3cnn(-c4ccccc4)c3-n3cccc3)CC2)c1, Cc1ccc(-n2c(=O)c3c(C)c(C(=O)N(C)C)sc3n(CC(=O)C(C)(C)C)c2=O)cc1C, Cc1cccc(CNC(=O)Cn2nc(C)n3c(cc4cc(F)ccc43)c2=O)c1, CN(c1ncnc2onc(-c3cccc(Cl)c3)c12)C1CCCCC1, CC1CCn2c(nc3cc(C(=O)NCCc4ccc(Cl)cc4)ccc32)C1 (centres undefined), Cc1ccc(-n2nc(CO)c(C(=O)NCc3ccccn3)n2)cc1C

Activity change, negative = inhibition, inactive:
COc1ccc(C2Sc3ccccc3NC3=C2C(=O)c2ccccc23)c(OC)c1OC (centres undefined) -18%, COc1ccc(NC(=O)CCNS(=O)(=O)c2cccc3nsnc23)cc1 -3.52%, Cc1ccc2nc(-c3cc(NC(=O)c4ccc5c(c4)OCCO5)ccc3Cl)oc2c1 3.35%, COc1ccc(-c2nnc(C3CCN(C(=O)c4ccccc4F)CC3)o2)cc1 -2.23%, Cc1ccc(S(=O)(=O)NCCc2cn3c(C)csc3n2)cc1 3.96%, OCCN1C[C@H](O)[C@@H](O)[C@H](O)[C@@H]1CO -1.21%, COc1ccc(C2c3c(oc4ccc(F)cc4c3=O)C(=O)N2Cc2ccc3c(c2)OCO3)cc1 (centres undefined) 0.325%, Cc1ccc(N2CC(c3nc4ccccc4n3CCC3CCCCC3)CC2=O)cc1 (centres undefined) 0.319%, CCOC(=O)c1cccc(Nc2c3c(nc4ccccc24)CCC3)c1 -16.9%, O=C(NCCS(=O)(=O)N1CCN(c2ccccc2)CC1)C(c1ccccc1)c1ccccc1 -2.81%, O=C1CC(c2ccccc2)Cc2[nH]c(=O)c(C(=O)Nc3cccc(F)c3)cc21 (centres undefined) -19.3%, O=C(Nc1ccccc1Br)C1CCCN(S(=O)(=O)c2cccc3nsnc23)C1 (centres undefined) -7.11%, COC(=O)c1ccccc1NC(=O)NCCc1c(C)nn(C)c1C -0.432%, CCc1ccc(CNCc2c(C(=O)O)n(Cc3cccc(F)c3)c3cc(OC)ccc23)cc1 9.38%, N#C/C(=C\c1ccccc1)c1nc(-c2cc3cc(Br)ccc3oc2=O)cs1 -3.12%, CCc1ccc(OCC(=O)N(Cc2ccc(Cl)cc2)C2CCS(=O)(=O)C2)cc1 (centres undefined) -8.45%, CCC(C)NC(=O)Cn1c(=O)cc(-c2ccccc2)c2c(C)nn(C)c21 (centres undefined) 14.5%, Cn1c(NCCO)nc2c1c(=O)n(Cc1ccccc1Cl)c(=O)n2C 0.741%, CCn1c(=O)n(CC)c2cc(N3CCCCC3)c(NC(=O)Nc3ccccc3Cl)cc21 5.86%, Cc1cccc(NS(=O)(=O)c2ccc3oc(=O)c4ncn(C)c4c3c2)c1C -3.01%, COc1cc2[nH]c(=O)n(CCCCCC(=O)N3CCN(c4cccc(C(F)(F)F)c4)CC3)c(=O)c2cc1OC -8.07%, COc1ccccc1C(=O)Nc1cc2c(cc1N1CCOCC1)n(C)c(=O)n2C 2.46%, Cc1nnc(C(=O)NC(C)(C)c2nc(C(=O)NCc3ccc(F)cc3)c(O)c(=O)n2C)o1 -7.67%, O=C(CCS(=O)(=O)c1cc(Br)cc2c1N(C(=O)C1CC1)CC2)Nc1ccc(Br)cc1F 12.9%, CCOC(=O)Cc1ccc(NC(=O)NCc2ccc3c(c2)CCN3C(=O)CC)cc1 -6.93%, COC(=O)c1ccc(Cn2nnc3sc4c(c3c2=O)CCC(C)C4)cc1 (centres undefined) 10.1%, CCOc1ccccc1CNC(=O)CCn1ccc2cc(S(=O)(=O)N3CCC(C)CC3)ccc21 -12.4%, CCCS(=O)(=O)c1c(Nc2ccccc2C)sc(C(=O)c2ccccc2)c1N 1.46%, COc1ccc(NC(=O)Cn2c(=O)oc3cc(S(=O)(=O)N4CCC(C)CC4)ccc32)c(OC)c1 -2.78%, CCc1ccc2c(c1)NC(c1cccs1)=NC(c1ccc(F)cc1)=N2 -1.28%, Cc1ccc(Cl)cc1NC(=O)C1CCC(CNS(=O)(=O)c2cccc3nsnc23)CC1 (centres undefined) -2.08%, CC(=O)N(Cc1cccnc1)c1nc2c(C)c(C)ccc2s1 9.64%, CCOc1ccc(CCNC(=O)c2cc3c(=O)[nH]c4ccc(C)cc4c3s2)cc1OCC -4.08%, O=C(NC1CCCc2ccccc21)c1ccc2c(c1)sc1nc(-c3ccc(F)cc3)cn12 (centres undefined) -10.2%, O=C(CCCN1C(=O)C(c2ccccc2)Oc2cccnc21)Nc1ccc(Br)cc1F (centres undefined) 100%, CCOC(=O)c1c(NC(C)=O)c2c3c(sc2n1Cc1nc(-c2cccc(Cl)c2)oc1C)CCCC3 1.51%, Cc1c(Cl)cccc1NC(=O)Cn1c(CCC(=O)O)ccc1-c1cccs1 -8.04%, COc1ccccc1OCC(=O)NCC(c1ccc(Cl)cc1)N1CCCCC1 (centres undefined) 8.38%, CCN(C(=O)C1CCN(S(=O)(=O)c2ccc3c(c2)CCCN3C(C)=O)CC1)c1cccc(C)c1 -23.5%, COc1cccc(CNC(=O)C(=O)Nc2c3c(nn2-c2ccccc2)CSC3)c1 -4.49%, CC(C)c1nn(-c2c(Cl)cccc2Cl)c2nc(Cc3ccc(OCCO)cc3)[nH]c(=O)c12 19.7%, Cc1ccc2oc3c(c(=O)c2c1)C(c1ccc(F)cc1)N(Cc1ccc2c(c1)OCO2)C3=O (centres undefined) 3.86%, CCOc1ccc(-c2cccc(NS(=O)(=O)c3c(C)cc(C)cc3C)c2)nn1 -19.1%, CC(=O)c1cccc(NC(=O)c2sc(-n3nc(C)c(Cc4ccc5c(c4)OCO5)c3C)nc2C)c1 -11.4%, CCOc1cc(C(=O)NCCc2csc3nc(-c4ccc(C)cc4)nn23)cc(OCC)c1OCC 3.32%, CCN(CC)C(=O)CSc1nc(-c2ccccc2F)nc2c1Cc1c(CO)cnc(C)c1O2 -3.12%, Cc1c(-c2ccc(Br)cc2)c(=O)oc2ccc(OC(=O)N3CCOCC3)cc12 -3.02%, COc1ccc(OC)c(-c2nnc3n(Cc4ccc(C)cc4)c(=O)c4ccccc4n23)c1 -5.63%, C=Cc1ccc(Cn2c(C)c(CNCc3cccc(Br)c3)c(C(=O)O)c2C)cc1 4.35%, COc1ccc(Cc2nc3ccccc3[nH]c2=O)cc1 -16%, O=C(c1ccccc1Cl)N1c2ncnn2C2(CCCCC2)[C@@H]2CCCC[C@@H]21 -3.1%, COC(=O)c1ccc(OCC2c3cc(OC)c(OC)cc3CCN2C(=O)COc2ccc(Cl)cc2)cc1 (centres undefined) -8.48%, COc1ccc(F)cc1S(=O)(=O)NCCc1csc2nc(-c3cccc(C)c3)nn12 -1.59%, CCOC(=O)c1c(S(=O)(=O)N2CCCC(C(=O)NCc3ccc(Cl)cc3)C2)c(C)n(C)c1C (centres undefined) 9.86%, Nc1nc(Nc2ccccc2F)sc1C(=O)c1ccc(Cl)cc1 1.14%, CCOC(=O)C1CCCN(C(=O)c2nn(-c3ccc(OC)cc3)c(=O)c3c2c2ccccc2n3C)C1 (centres undefined) 1.63%, Cc1cccc(NC(=O)CCS(=O)(=O)c2ccc3c(c2)n(C)c(=O)c(=O)n3C)c1C 16.1%, CCOC(=O)c1noc2ncn(CC(=O)Nc3ccc(C)c(F)c3)c(=O)c12 28.7%, Cc1c(C(=O)N(Cc2ccccc2F)C2CCS(=O)(=O)C2)oc2ccc(F)cc12 (centres undefined) -11.9%, O=c1cc(-c2ccccc2)n2c(SCc3ccccc3)nnc2[nH]1 -19.2%, CCc1ccc(-n2nc(C)c3c(C)cc(=O)n(CC(=O)N4CCCc5ccccc54)c32)cc1 1.27%, CCc1ccc(-n2nc3cc(C)c(NC(=O)c4cccc5ccccc45)cc3n2)cc1 -6.27%, Cn1c(=O)c2c(SCC(=O)NCc3ccco3)nc(-c3ccccc3)nc2n(C)c1=O -5.04%, Cn1c(=O)c2c(nc(NCc3ccccc3)n2Cc2ccccc2)n(C)c1=O -6.72%, COc1ccc(N2CC(NC(=O)COc3ccccc3)CC2=O)cc1OC (centres undefined) -13.8%, Cc1ccc(CNC(=O)c2cc3c(s2)-c2ccccc2SC3)cc1 19.8%, CCOC(=O)c1ccc(NC(=O)Nc2c[nH]c(=O)[nH]c2=O)cc1 -3.82%, CC(C)CN(CCCNC(=O)Cn1ncc2c3ccccc3n(C)c2c1=O)CC(C)C 1.62%
